Results from patent US20250228957A1.

Tests used:
[1] = target: Deglycosylated IgA (dg-IgA) (human) (UniProt P01876); test: BLI, dg-IgA on Protein L tips
[2] = target: ASGPR (as used in the SPR of Table 7) (Homo sapiens (Human)) (UniProt P07306); test: SPR

UniProt P01876, sequence (P01876 other isoform, or with tags, fused parts or gaps): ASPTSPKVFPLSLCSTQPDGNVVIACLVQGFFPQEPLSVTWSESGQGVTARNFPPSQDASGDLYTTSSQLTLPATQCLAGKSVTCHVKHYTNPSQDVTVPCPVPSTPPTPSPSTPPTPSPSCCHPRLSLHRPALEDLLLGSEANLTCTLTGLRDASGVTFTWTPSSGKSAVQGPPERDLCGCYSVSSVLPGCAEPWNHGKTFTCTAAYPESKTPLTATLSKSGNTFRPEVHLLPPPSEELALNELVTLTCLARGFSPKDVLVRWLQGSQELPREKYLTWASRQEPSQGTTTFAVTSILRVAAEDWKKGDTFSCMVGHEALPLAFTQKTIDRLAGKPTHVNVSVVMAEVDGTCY

| Binder | Kd [1] [nM] | Kd [2] [nM] |
| --- | --- | --- |
| AGN01E (ABT010 conjugated with MAT005) (antibody, human IgG1, kappa, MATE reagent MAT005 (ASGPR binder desOH2) conjugated; site not stated for this agent) heavy: ELQLQESGPGLVKPSQSLSLTCSVTGYSIRSNYWGWIRKFPGNKMEWMGYITYSGGTYYNPSLKSRISITRDTSKNQFFLQLTSVTTEDTATYYCTRWGDWYFDFWGPGTKVTVSP[letters of human IgG1 constant region not shown] light: DVVLTQTPPPLSVAIGQSVSISCKSSQSLVHTDGKTYLHWLLQSPGQSPKLLIYQVSNLGSGVPDRFSGTGSQKDFTLKISRVEAEDLGVYYCVQATHFPLTFGIGTKLELQRTVAAPSVFIFPPSDEQLKSGTASVVCLLNNFYPREAKVQWKVDNALQSGNSQESVTEQDSKDSTYSLSSTLTLSKADYEKHKVYACEVTHQGLSSPVTKSFNRGEC | 0.329 | 0.0379 |
| AGN01F (ABT010 conjugated with MAT006) (antibody, human IgG1, kappa, MATE reagent MAT006 (ASGPR binder desOH1) conjugated; site not stated for this agent) heavy: ELQLQESGPGLVKPSQSLSLTCSVTGYSIRSNYWGWIRKFPGNKMEWMGYITYSGGTYYNPSLKSRISITRDTSKNQFFLQLTSVTTEDTATYYCTRWGDWYFDFWGPGTKVTVSP[letters of human IgG1 constant region not shown] light: DVVLTQTPPPLSVAIGQSVSISCKSSQSLVHTDGKTYLHWLLQSPGQSPKLLIYQVSNLGSGVPDRFSGTGSQKDFTLKISRVEAEDLGVYYCVQATHFPLTFGIGTKLELQRTVAAPSVFIFPPSDEQLKSGTASVVCLLNNFYPREAKVQWKVDNALQSGNSQESVTEQDSKDSTYSLSSTLTLSKADYEKHKVYACEVTHQGLSSPVTKSFNRGEC | 0.331 | 8.12 |
| AGN01I (ABT010 conjugated with MAT009) (antibody, human IgG1, kappa, MATE reagent MAT009 (ASGPR binder TFP1) conjugated; site not stated for this agent) heavy: ELQLQESGPGLVKPSQSLSLTCSVTGYSIRSNYWGWIRKFPGNKMEWMGYITYSGGTYYNPSLKSRISITRDTSKNQFFLQLTSVTTEDTATYYCTRWGDWYFDFWGPGTKVTVSP[letters of human IgG1 constant region not shown] light: DVVLTQTPPPLSVAIGQSVSISCKSSQSLVHTDGKTYLHWLLQSPGQSPKLLIYQVSNLGSGVPDRFSGTGSQKDFTLKISRVEAEDLGVYYCVQATHFPLTFGIGTKLELQRTVAAPSVFIFPPSDEQLKSGTASVVCLLNNFYPREAKVQWKVDNALQSGNSQESVTEQDSKDSTYSLSSTLTLSKADYEKHKVYACEVTHQGLSSPVTKSFNRGEC | 0.304 |  |

More lines, in order of falling Kd [1], values ahead:

| Kd [1] [nM] | Kd [2] [nM] | Binder |
| --- | --- | --- |
| 0.296 | 1.17 | AGN01B (ABT010 conjugated with MAT002) (antibody, human IgG1, kappa, MATE reagent MAT002 (ASGPR binder βGN2) conjugated; site not stated for this agent) heavy: ELQLQESGPGLVKPSQSLSLTCSVTGYSIRSNYWGWIRKFPGNKMEWMGYITYSGGTYYNPSLKSRISITRDTSKNQFFLQLTSVTTEDTATYYCTRWGDWYFDFWGPGTKVTVSP[letters of human IgG1 constant region not shown] light: DVVLTQTPPPLSVAIGQSVSISCKSSQSLVHTDGKTYLHWLLQSPGQSPKLLIYQVSNLGSGVPDRFSGTGSQKDFTLKISRVEAEDLGVYYCVQATHFPLTFGIGTKLELQRTVAAPSVFIFPPSDEQLKSGTASVVCLLNNFYPREAKVQWKVDNALQSGNSQESVTEQDSKDSTYSLSSTLTLSKADYEKHKVYACEVTHQGLSSPVTKSFNRGEC |
| 0.253 |  | AGN02B (ABT020 conjugated with MAT002) (antibody, human IgG1, kappa, MATE reagent MAT002 (ASGPR binder βGN2) conjugated; site not stated for this agent) heavy: ELQLQESGPGLVKPSQSLSLTCSVTGYSIRSNYWGWIRKFPGNKMEWMGYITYSGGTYYNPSLKSRISITRDTSKNQFFLQLTSVTTEDTATYYCTRWGDWYFDFWGPGTKVTVSP[letters of human IgG1 constant region with changes not shown] light: DVVLTQTPPPLSVAIGQSVSISCKSSQSLVHTDGKTYLHWLLQSPGQSPKLLIYQVSNLGSGVPDRFSGTGSQKDFTLKISRVEAEDLGVYYCVQATHFPLTFGIGTKLELQRTVAAPSVFIFPPSDEQLKSGTASVVCLLNNFYPREAKVQWKVDNALQSGNSQESVTEQDSKDSTYSLSSTLTLSKADYEKHKVYACEVTHQGLSSPVTKSFNRGEC |
